“And” between values parts separate entries of the source, which are not always exact repeats. Equal entries are not always repeated. The full ranking holds about 13,000 compounds; the median of “IFI” is about 4, and the highest 2% start at about 17. This is one part of the list.

The assay in a line: GSK_TCMDC: Inhibition Frequency Index (IFI). The number of non-kinase HTS assays where a compound showed > 50 % inhibition, expressed as a percentage of the number of such assays in which the compound was tested (-0 is zero). The class given is functional.
In turn, `Cc1[nH]c2ccccc2c1C1=CCN(CCCCC23CCCc4cccc(c42)NC3=O)CC1` (stereo unspecified) registered an IFI of 3.55%. With `O=C(/C=C/c1ccc(Cl)c(Cl)c1)N1CCC(CN2CCC(c3c[nH]c4ccc(O)cc34)CC2)CC1` the figure was 12%; with `COCCNCc1cccc(-c2cccc(CN(C(=O)Nc3ccccc3)C3CCN(Cc4ccccc4)CC3)c2)c1`, 7.75%. As to `COc1nc(N)ncc1C(=O)NC1CN2CCC1CC2` (stereo unspecified), the IFI is -0%. `COc1ccc(C=CC(=O)N2CCC(CN3CCC(c4c[nH]c5ccccc45)CC3)CC2)cc1OC`: the IFI amounted to 5.07%.

As to `CC(=O)C1(c2ccccc2)CCN(CCC(NC(=O)c2cc(C(F)(F)F)cc(C(F)(F)F)c2)c2ccc(Cl)c(Cl)c2)CC1` (stereo unspecified), the IFI was 1.45%. With `CN(CC(=O)N1CCN(S(=O)(=O)c2cccc(Cl)c2)CC1CN1CCCC1)c1ccc(Cl)c(Cl)c1` (stereo unspecified) the figure was 6.67%; with `CCCCCC(C)C(C)c1cc(O)c2c(c1)OC(C)(C)c1cnccc1-2` (stereo unspecified), 1.49%.

`Cc1[nH]c2c(C)cc(NS(C)(=O)=O)cc2c1C1CCN(CC2CCN(C(=O)/C=C/c3ccc(Cl)c(Cl)c3)CC2)CC1` gave an IFI of 2.29%. With `Cc1[nH]c2ccccc2c1C1CCN(CC2CCC(NC(=O)/C=C/c3ccc(Cl)c(Cl)c3)CC2)CC1` (stereo unspecified) the figure was 2.21%; with `FC(F)(F)c1ccc(NC(=S)NC2CCC(CN3CCC(c4c[nH]c5ccccc45)CC3)CC2)cc1` (stereo unspecified), 9.49% and 10.7%; with `CC[C@H]1CN2CC[C@@H]1C[C@H]2[C@H](O)c1cc(N2CCC(N3CCCCC3)CC2)nc2ccc(OC)cc12`, 2.9%. As to `C/C=C1\CN2CC[C@H]1C[C@H]2[C@H](O)c1ccnc2ccc(OC)cc12`, the IFI is -0% and 0.74%. Turning to `O=C(NC1CCN(CC2(c3ccc(Cl)cc3)CCC2)CC1)c1cscn1`, the IFI was 4.17%. With `CC[C@H]1CN2CC[C@H]1C[C@H]2[C@H](O)c1ccnc2ccc(C#N)cc12` the figure was -0%. Turning to `CCC(C)CN1CCC(N(C)c2cc(NC(=O)c3cccc(C)c3)ccn2)CC1` (stereo unspecified), the IFI was -0%. With `C[C@@H]1C[C@@H]([C@H](O)CC2CC(=O)NC(=O)C2)C(=O)[C@@H](C)C1` the figure was 9.35%; with `O=C(NC1CCC(CN2CCC(c3c[nH]c4ccccc34)CC2)CC1)c1cc2ccccc2s1` (stereo unspecified), 7.04% and 4.9%. For the molecule `CC(Cc1ccc(OCc2ccccc2)cc1)NCC(O)c1cccc(Cl)c1` (stereo unspecified), the IFI was 15.6%.

Consider `O=C(/C=C/c1ccc(Cl)c(Cl)c1)NC1CCC(CN2CCC(c3c[nH]c4ccc(O)cc34)CC2)CC1` (stereo unspecified), for which the IFI is 9.38% and 10.8%. With `CNCCCCCCOc1ccc(CC(C)NCC(O)c2cccc(C(F)(F)F)c2)cc1` (stereo unspecified) the figure was 7.8%; with `O=C(/C=C/C=C/c1ccccc1)NC1CCC(CN2CCC(c3c[nH]c4ccccc34)CC2)CC1` (stereo unspecified), 6.85%; with `CCOC(C(=O)OCCN(C(C)C)C(C)C)(c1ccccc1)c1ccccc1`, 1.37%. With `CC(Cc1ccc(OC2CCCCC2)cc1)NCC(O)c1cccc(Cl)c1` (stereo unspecified) the figure was 21.7%; with `COc1cccc(CCNC(C)Cc2ccc(OCCCCOc3ccccc3)cc2)c1` (stereo unspecified), 31%; with `CC(Cc1ccc(NC(=O)[C@@H](C)NCCc2cccc(Cl)c2)cc1)NCCc1cccc(Cl)c1` (stereo partly specified), 12.4%. With `CN(c1cc(NC(=O)c2ccc(F)cc2)ccn1)C1CCN(Cc2cccc(F)c2)CC1` the figure was -0%; with `O=C(CSc1ccc(Cl)cc1)NC1CCC(CN2CCC(c3c[nH]c4ccccc34)CC2)CC1` (stereo unspecified), 7.91%. Turning to `CC(=O)C1(c2ccccc2)CCN(CCC2(c3ccc(Cl)c(Cl)c3)CN(C(=O)Nc3cc(F)cc(F)c3)CCO2)CC1` (stereo unspecified), the IFI came to 7.59%. For `CC[C@H]1CN2CC[C@@H]1C[C@H]2[C@H](O)c1cc(-c2cc(Cl)cc(Cl)c2)nc2ccc(OC)cc12`, the IFI is 0.69%. As for `O=C(/C=C/c1ccc(Cl)c(Cl)c1)NC1CCC(CN2CCC(c3c[nH]c4cc(O)ccc34)CC2)CC1` (stereo unspecified), the figure is 6.72%; as for `Oc1cccc(C2CCCN(Cc3cccc4cc[nH]c34)C2)c1` (stereo unspecified), 11.8%. For `O=C1Nc2cccc3c2C1(CCCCN1CC=C(c2c[nH]c4ncccc24)CC1)CCC3` (stereo unspecified), the IFI amounted to 4.41%. As to `CC[C@H]1CN2CC[C@H]1C[C@H]2[C@H](O)c1cc(-c2ccc3ccccc3c2)nc2ccc(OC)cc12`, the IFI was determined as 10.5%. `Cc1[nH]c2ccccc2c1C1=CCN(CCN2CCCc3c(Br)cccc3C2=O)CC1` registered an IFI of 2.96%. As for `CNCCN(C)C(=O)Oc1c(Cl)c(C)nc(C)c1-c1ccc(Oc2ccc(OC(F)(F)F)cc2)cc1`, the figure is 2.34%; as for `COc1c(F)cc(CC(C)NCC(O)c2cccc(Cl)c2)cc1F` (stereo unspecified), 1.37%; as for `CN1CC=C(c2c[nH]c3ccc(OCc4ccccc4)cc23)CC1`, 1.64%. With `C/C=C1/CN2CC[C@H]1C[C@H]2[C@H](O)c1ccnc2ccc(OC)cc12` the figure was -0%; with `CN(C(=O)OCc1ccccc1)C1CCC(CCN2CCC3(CC2)C(=O)NCN3c2cccc(C(F)(F)F)c2)(c2ccccc2)CC1` (stereo unspecified), 8.63%; with `C=C[C@H]1CN2CC[C@H]1C[C@H]2[C@H](O)c1cc(-c2ccc(Cl)cc2)nc2ccc(OC)cc12`, 14.9%. In turn, `CC(=O)Nc1ccc(CN2CCC(N(C)c3cc(NC(=O)c4cccs4)ccn3)CC2)cc1` returned an IFI of 2.94%.

`Oc1ccccc1CN1CCC(CCOC(c2ccccc2)c2ccc(Cl)cc2)CC1` (stereo unspecified) showed an IFI of 2.34%. As for `Fc1ccc2[nH]cc(CCN3CCC(CNCc4ccccc4)CC3)c2c1`, the figure is 9.86%. As for `CC[C@H]1CN2CC[C@H]1C[C@H]2[C@H](O)c1cc(N2CCCC(CO)C2)nc2ccc(OC)cc12` (stereo partly specified), the figure is -0%; as for `CC(=O)N(Cc1ccccc1-c1ccc(CNCCc2ccccc2)cc1)C1CCN(Cc2ccccc2)CC1`, 6.02%.

For the molecule `O=C(Nc1ccc(CN2CCC(c3c[nH]c4ccc(O)cc34)CC2)cc1)c1ccc(-c2ccccc2)cc1`, the IFI worked out at 7.69%. For `CN1CC=C(c2c[nH]c3ccc(Br)cc23)CC1`, the IFI was -0%. `CCN(Cc1ccccc1)CC(O)c1ccc(Cl)c(Cl)c1` (stereo unspecified) yielded an IFI of 0.74%. With `O=C(/C=C/c1ccc(Cl)c(Cl)c1)N1CCC(CN2CCC(c3cn(CC(=O)N4CCCCC4)c4ccccc34)CC2)CC1` the figure was 10%. As for `CC[C@H]1CN2CC[C@H]1C[C@H]2[C@H](O)c1cc(-c2ccc(SC)cc2)nc2ccc(OC)cc12`, the figure is 6.9%; as for `NC1=NC2(CCCC2)N(c2ccc(Cl)cc2)C(N)=N1`, 0.67%; as for `CC(Cc1ccc(-c2nc3ccccc3[nH]2)cc1)NCC(O)c1cccc(C(F)(F)F)c1` (stereo unspecified), 7.19%. As to `Cc1ccc(/C=C/C(=O)NC2CCC(CN3CCC(c4c[nH]c5ccccc45)CC3)CC2)cc1` (stereo unspecified), the IFI is 7.04% and 5.52%. With `S=C(NCC1CCCCC1)NC1CCC(CN2CCC(c3c[nH]c4ccccc34)CC2)CC1` (stereo unspecified) the figure was 5.07%; with `O=C(c1cc(C(=O)NCc2ccc(Cl)cc2)c(=O)n(Cc2ccc(Cl)cc2)c1)c1cc(F)ccc1O`, 3.03%. The molecule `CCCCn1c(C)c(C(=O)OCC)c2cc(OC(C)=O)c(Br)cc21` gave an IFI of 2.1%. With `O=C(NC1CCC(CN2CCC(c3c[nH]c4ccccc34)CC2)CC1)c1csc(-c2ccc(C(F)(F)F)cc2Cl)n1` (stereo unspecified) the figure was 7.8%; with `CC(=O)C1(c2ccccc2)CCN(CCC2(c3ccc(Cl)c(Cl)c3)CN(C(=O)CC(C)C)CCO2)CC1` (stereo unspecified), 4.03%; with `CN1C(=O)OC[C@@H]1Cc1ccc2[nH]cc(C3=CCN(Cc4ccccc4)CC3)c2c1`, -0%. `CC(Cc1ccc(SCCSc2ccccc2)cc1)NCC(O)c1cccc(Cl)c1` (stereo unspecified) returned an IFI of 9.35%. With `CCOC(=O)CCCN1C(=O)CN=C(c2ccccc2)c2cc(Cl)ccc21` the figure was -0%; with `CC[C@H]1CN2CC[C@@H]1C[C@H]2[C@H](O)c1cc(-c2c(C)noc2C)nc2ccc(OC)cc12`, 0.74%; with `Cc1[nH]c2ccccc2c1C1=CCN(CC2CC2C(=O)c2ccccc2)CC1` (stereo unspecified), 4.27%. As for `Cc1nc(-c2ccc(-c3ccc(C(=O)Nc4ccc5c(c4)C4(CCNCC4)CO5)cc3)c(C)c2)no1`, the figure is 5.26%.

Consider `O=C(C=Cc1ccc(Br)cc1)NC1CCC(CN2CCC(c3c[nH]c4ccccc34)CC2)CC1` (stereo unspecified), for which the IFI is 6.38%. The molecule `CN1C(=O)[C@H](NC(=O)[C@@H](Cc2ccccc2)NC(=S)Nc2ccccc2)N=C(c2ccccc2)c2ccccc21` returned an IFI of -0%.

The molecule `Cc1c(C(=O)NC2CCC(CN3CCC(c4c[nH]c5ccccc45)CC3)CC2)cnn1-c1c(Cl)cc(Cl)cc1Cl` (stereo unspecified) registered an IFI of 10%.

The molecule `CC[C@H]1CN2CCc3cc(OC)c(OC)cc3[C@@H]2C[C@@H]1C[C@H]1NCCc2c1cc(OC)c(O)c2Cl` showed an IFI of 9.52%. As for `O=C(NC1CCC(CN2CCC(c3c[nH]c4ccccc34)CC2)CC1)NC12CC3CC(CC(C3)C1)C2` (stereo unspecified), the figure is 4.9%; as for `N=c1c2c(n(Cc3ccc(Cl)cc3Cl)c3c1CCC3)CCCC2`, 2.76%. On to `COc1ccc(C(=O)C2CC2CN2CC=C(c3c[nH]c4ccccc34)CC2)cc1` (stereo unspecified), for which the IFI stood at 4.42%. `COc1ccc2[nH]cc(C3CC4CCC(C3)N4CCC3CCN(C(=O)/C=C/c4ccc(Cl)c(Cl)c4)CC3)c2c1` (stereo unspecified): the IFI came out at 13.6%. The molecule `CN1CCC(COC(=O)C(O)(c2ccccc2)c2ccccc2)C1` (stereo unspecified) returned an IFI of 2.19%. For `CC(Cc1ccc(Oc2ccc(Cl)cc2)cc1)NCC(O)c1cccc(Cl)c1` (stereo unspecified), the IFI is 7.3%. `Cc1cc(O)cc2c(C3CCN(CC4CCN(C(=O)/C=C/c5ccc(Cl)c(Cl)c5)CC4)CC3)c[nH]c12`: the IFI is 4.93%. On to `O=c1n[n+](C2CCCCC2)[n-]o1`, for which the IFI is -0%.

Turning to `Cc1[nH]c2ccccc2c1C1=CCN(CCCCCNC(=O)/C=C/c2ccc(Cl)c(Cl)c2)CC1`, the IFI worked out at 5.34%. On to `COC(=O)c1ccc(CC(C)NCC(O)c2ccc3ccc4ccccc4c3c2)cc1` (stereo unspecified), for which the IFI is 13.4%. In turn, `CC[C@H]1CN2CC[C@H]1C[C@H]2C(O)c1cc(OC)nc2ccccc12` (stereo partly specified) gave an IFI of 0.71%.

With `CC(=O)Nc1ccc(CN2CCC(N(C)c3cc(NC(=O)c4cccc(F)c4)ccn3)CC2)cc1`, the IFI was -0%. `Cc1[nH]c2ccc(NS(C)(=O)=O)cc2c1C1CCN(CC2CCN(C(=O)/C=C/c3ccc(Cl)c(Cl)c3)CC2)CC1` gave an IFI of 2.17%. As for `Cc1cc(N(C)C2CCN(C)CC2)nc(Nc2ccc(Cl)cc2)n1`, the figure is 2.41%; as for `COc1ccc2nc(-c3ccc(F)cc3)cc([C@@H](O)[C@@H]3C[C@@H]4CCN3CC4C=NO)c2c1` (stereo partly specified), 1.46%; as for `CC[C@H]1CN2CC[C@@H]1C[C@H]2[C@H](O)c1cc(N2CCSCC2)nc2ccc(OC)cc12`, 3.77%. `CC(=O)N(Cc1cccc(-c2ccc(CNCCc3ccccc3)cc2)c1)C1CCN(Cc2ccccc2)CC1` showed an IFI of 7.46%.

These data come from ChEMBL document CHEMBL1157539, “Thousands of chemical starting points for antimalarial lead identification” (Nature, 2010).
